# Results as given in the supplement of paper PMC8728848.
# The other results are listed elsewhere or left out.
# Columns and labels:
# Experiment in all cases: glycan array binding signal (z-score within array); higher = stronger binding
# Conditions in all cases: glycan notation: IUPAC condensed, linker removed
# [1] = target: Fuc(a1-2)Gal(b1-4)GlcNAc(b1-3)Gal(b1-4)GlcNAc(b1-3)Gal(b1-4)GlcNAc
# Outline: (§1)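 The binding signal is a Z-score computed within each array. Data were drawn from 3228 arrays in the Consortium for Functional Glycomics database, restricted to those with a known protein sequence. Scores were averaged over arrays of the same protein sequence at different concentrations or buffers, and over linkers, and negative values can be taken as non-binding.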
# [2] = target: Fuc(a1-2)Gal(b1-4)GlcNAc(b1-3)GalNAc
# Outline: as §1
# [3] = target: Fuc(a1-2)Gal(b1-4)GlcNAc(b1-3)[Fuc(a1-2)Gal(b1-4)GlcNAc(b1-6)]GalNAc
# Outline: as §1
# [4] = target: Fuc(a1-2)Gal(b1-4)GlcNAc(b1-3)[Fuc(a1-3)[Gal(b1-4)]GlcNAc(b1-6)]Gal(b1-4)Glc
# Outline: as §1
# [5] = target: Fuc(a1-2)Gal(b1-4)GlcNAc(b1-6)GalNAc
# Outline: as §1
# [6] = target: Fuc(a1-2)Gal(b1-4)GlcNAc6S
# Outline: as §1
# [7] = target: Fuc(a1-2)Gal(b1-4)[Fuc(a1-3)]GlcNAc
# Outline: as §1
# [8] = target: Fuc(a1-2)Gal(b1-4)[Fuc(a1-3)]GlcNAc(b1-2)Man(a1-3)[Fuc(a1-2)Gal(b1-4)[Fuc(a1-3)]GlcNAc(b1-2)Man(a1-6)]Man(b1-4)GlcNAc(b1-4)[Fuc(a1-6)]GlcNAc
# Outline: as §1
# [9] = target: Fuc(a1-2)Gal(b1-4)[Fuc(a1-3)]GlcNAc(b1-2)[Fuc(a1-2)Gal(b1-4)[Fuc(a1-3)]GlcNAc(b1-4)]Man(a1-3)[Fuc(a1-2)Gal(b1-4)[Fuc(a1-3)]GlcNAc(b1-2)Man(a1-6)]Man(b1-4)GlcNAc(b1-4)GlcNAc
# Outline: as §1
# [10] = target: Fuc(a1-2)Gal(b1-4)[Fuc(a1-3)]GlcNAc(b1-3)Gal(b1-4)[Fuc(a1-3)]GlcNAc
# Outline: as §1
# [11] = target: Fuc(a1-2)Gal(b1-4)[Fuc(a1-3)]GlcNAc(b1-3)Gal(b1-4)[Fuc(a1-3)]GlcNAc(b1-3)Gal(b1-4)[Fuc(a1-3)]GlcNAc
# Outline: as §1
# [12] = target: Fuc(a1-2)Gal(b1-4)[Fuc(a1-3)]GlcNAc(b1-3)GalNAc
# Outline: as §1
# [13] = target: Fuc(a1-2)Gal(b1-4)[Fuc(a1-3)]GlcNAc(b1-3)[Neu5Ac(a2-6)Gal(b1-4)GlcNAc(b1-6)]Gal(b1-4)Glc
# Outline: as §1
# [14] = target: Fuc(a1-2)Gal3S(b1-4)GlcNAc
# Outline: as §1
# [15] = target: Fuc(a1-2)Gal6S(b1-3)GlcNAc
# Outline: as §1
# [16] = target: Fuc(a1-2)Gal6S(b1-3)GlcNAc6S
# Outline: as §1
# [17] = target: Fuc(a1-2)Gal6S(b1-4)Glc
# Outline: as §1
# [18] = target: Fuc(a1-2)Gal6S(b1-4)Glc6S
# Outline: as §1
# [19] = target: Fuc(a1-2)[Gal(a1-3)]Gal
# Outline: as §1
# [20] = target: Fuc(a1-2)[Gal(a1-3)]Gal(b1-3)GalNAc
# Outline: as §1
# [21] = target: Fuc(a1-2)[Gal(a1-3)]Gal(b1-3)GalNAc(b1-3)Gal(a1-4)Gal(b1-4)Glc
# Outline: as §1
# [22] = target: Fuc(a1-2)[Gal(a1-3)]Gal(b1-3)GlcNAc
# Outline: as §1
# [23] = target: Fuc(a1-2)[Gal(a1-3)]Gal(b1-3)GlcNAc(b1-2)Man(a1-3)[Fuc(a1-2)[Gal(a1-3)]Gal(b1-3)GlcNAc(b1-2)Man(a1-6)]Man(b1-4)GlcNAc(b1-4)GlcNAc
# Outline: as §1
# [24] = target: Fuc(a1-2)[Gal(a1-3)]Gal(b1-3)GlcNAc(b1-2)Man(a1-3)[Fuc(a1-2)[Gal(a1-3)]Gal(b1-3)GlcNAc(b1-2)Man(a1-6)]Man(b1-4)GlcNAc(b1-4)[Fuc(a1-6)]GlcNAc
# Outline: as §1
# [25] = target: Fuc(a1-2)[Gal(a1-3)]Gal(b1-3)GlcNAc(b1-3)GalNAc
# Outline: as §1
# [26] = target: Fuc(a1-2)[Gal(a1-3)]Gal(b1-3)GlcNAc(b1-6)GalNAc
# Outline: as §1
# [27] = target: Fuc(a1-2)[Gal(a1-3)]Gal(b1-4)Glc
# Outline: as §1
# [28] = target: Fuc(a1-2)[Gal(a1-3)]Gal(b1-4)GlcNAc
# Outline: as §1
# [29] = target: Fuc(a1-2)[Gal(a1-3)]Gal(b1-4)GlcNAc(b1-2)Man
# Outline: as §1
# [30] = target: Fuc(a1-2)[Gal(a1-3)]Gal(b1-4)GlcNAc(b1-2)Man(a1-3)[Fuc(a1-2)[Gal(a1-3)]Gal(b1-4)GlcNAc(b1-2)Man(a1-6)]Man(b1-4)GlcNAc(b1-4)GlcNAc
# Outline: as §1
binder,measurement,setting,value
Mg3lysM (Mycosphaerella graminicola) (protein) APQNPPTSCSAAPQPTGTGSPGTVCGSTTFTNYTVKAGDTLGAIAKQYNSGVCDIAKVNGIDNPDYIKPDQVLSIPANCVTPDNTSCVKPVPVITNTCVLGVGSTYTVKSGDSFSAIATSFNITLASLEARNPQIPNYDLIFPGQVINTPLCPNSVCDSIGTYVIESGDIFYNLAQSNNVTVGQLESLNVNVNVTDIHPGDIIILPHNCHNITASA,glycan array binding signal (z-score),[1],-0.034
same,glycan array binding signal (z-score),[2],-0.07
same,glycan array binding signal (z-score),[3],-0.151
same,glycan array binding signal (z-score),[4],-0.038
same,glycan array binding signal (z-score),[5],-0.086
same,glycan array binding signal (z-score),[6],-0.05
same,glycan array binding signal (z-score),[7],-0.109
same,glycan array binding signal (z-score),[8],-0.046
same,glycan array binding signal (z-score),[9],-0.132
same,glycan array binding signal (z-score),[10],-0.06
same,glycan array binding signal (z-score),[11],-0.102
same,glycan array binding signal (z-score),[12],-0.133
same,glycan array binding signal (z-score),[13],-0.064
same,glycan array binding signal (z-score),[14],-0.003
same,glycan array binding signal (z-score),[15],-0.103
same,glycan array binding signal (z-score),[16],-0.089
same,glycan array binding signal (z-score),[17],-0.07
same,glycan array binding signal (z-score),[18],-0.1
same,glycan array binding signal (z-score),[19],-0.086
same,glycan array binding signal (z-score),[20],-0.098
same,glycan array binding signal (z-score),[21],-0.047
same,glycan array binding signal (z-score),[22],-0.116
same,glycan array binding signal (z-score),[23],-0.079
same,glycan array binding signal (z-score),[24],-0.127
same,glycan array binding signal (z-score),[25],-0.104
same,glycan array binding signal (z-score),[26],-0.044
same,glycan array binding signal (z-score),[27],-0.069
same,glycan array binding signal (z-score),[28],-0.081
same,glycan array binding signal (z-score),[29],-0.157
same,glycan array binding signal (z-score),[30],0.058
